# Assay results from paper PMC6212790.
# The list shows a part of the results. At the low end of the ranking the order means little.
# Target: T1, GST-Rok (full length) (UniProt O34857)
# T1 sequence: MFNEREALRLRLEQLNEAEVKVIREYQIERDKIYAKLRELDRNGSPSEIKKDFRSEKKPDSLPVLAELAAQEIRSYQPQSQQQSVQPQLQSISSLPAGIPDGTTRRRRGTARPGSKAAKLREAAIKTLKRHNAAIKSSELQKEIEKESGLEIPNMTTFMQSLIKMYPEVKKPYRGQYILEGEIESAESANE
# Assay: protein binding microarray;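 note: rank score from −0.5 (least bound) to 0.5 (best bound)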
# Conditions: Rok is a gene silencer of Bacillus subtilis; high values mean tight binding; most listed sequences are background and not binding sites; double strand, one strand shown
row,Sequence,binding signal [E-score]
1,AACGGTGG,0.0395
2,TATCGAGA,0.102
3,CCACGCGA,-0.062
4,CGGCGCAG,-0.295
5,CCACGACC,-0.232
6,TAGGTAGA,0.361
7,ATCACCCA,-0.067
8,ACTACCGC,0.245
9,CCATGTCG,-0.041
10,AATAGATC,0.14
11,AGCATAGA,-0.0379
12,GGTCAGAA,-0.00663
13,ACGGGCCT,-0.372
14,CATAAGGG,-0.102
15,TCATCTCA,-0.0432
16,ATCGTTTA,-0.0103
17,AATCCCCC,-0.386
18,AATTATGA,0.157
19,CGCCTAGC,-0.133
20,AGGTGGTA,0.124
21,ACCGCCTA,-0.0824
22,ACGTCAGG,-0.293
23,AGTGCATC,0.0814
24,TGCATGCA,-0.0838
25,CCTGAGCG,-0.245

row,Sequence,binding signal [E-score]
1,CTGCGAAC,-0.0535
2,CGTTGTGA,0.127
3,CTAGCCAC,0.0157
4,ATAGTACG,0.265
5,TTCACCAA,0.0933
6,TCTTGCCA,-0.162
7,AGTGATGG,-0.0102
8,CACAAACC,-0.0528
9,CTATCCGA,0.107
10,ATCTGTAC,0.152
11,CCATCTAA,0.138
12,CTGGTCTA,-0.0345
13,CGCTCTCA,-0.178
14,ACGGGCAC,-0.186
15,CAGCCTGC,-0.0412
16,CCTCCGCC,-0.31
17,ATTTTTAA,-0.0198
18,ACCTTACA,0.0529
19,GTTTAAAC,0.095
20,AACCTACT,0.249
21,GTAACCAA,0.0602
22,CAGGGGAC,-0.324
23,ATCTGTGG,-0.0438
24,AACTATTC,0.315
25,GGATCGGA,-0.205

row,Sequence,binding signal [E-score]
1,AGCCAGCC,-0.288
2,AGCTTGTC,0.00488
3,CTACGAGA,0.181
4,CGAACTCC,-0.196
5,AACGCAGA,-0.207
6,AAGTAAGC,0.0748
7,CGGGTTAG,-0.117
8,ATACACCG,0.0288
9,AGTATCCG,0.0731
10,ATCACTGC,-0.155
11,TGCAGAAA,-0.0501
12,GGGTGATA,0.135
13,AGAGCCGG,-0.396
14,CACTAACG,0.00614
15,AGAAGTCC,-0.0675
16,ATTGTTAA,0.218
17,TACCTCTA,0.22
18,CGAATCAG,0.0152
19,AGAGCTGA,-0.124
20,CTTAAGCA,-0.0622
21,ATGGAAGC,-0.0504
22,CAATGTCC,-0.116
23,AACCGGCA,0.13
24,AGCAGTAG,0.165
25,CAGCGTAA,0.0823

row,Sequence,binding signal [E-score]
1,AGATGGTG,0.138
2,CGCCGGCC,-0.303
3,GAGCATTA,0.0953
4,AATTTGGC,0.000203
5,AGTCGAAA,0.0407
6,ACTTTATC,0.171
7,CAGGACGC,-0.257
8,GTCCCAAC,-0.0888
9,GTAACAAA,0.138
10,GATGTGAC,0.033
11,AGGCCGTG,-0.268
12,TACCTCGA,0.205
13,AGGACGGG,-0.241
14,ATTCAGCC,-0.0991
15,ATTTTTCA,-0.0526
16,ATGCACCG,-0.00205
17,CCGCTGAC,-0.15
18,ATCTAACA,0.236
19,CTTAGCCA,-0.0361
20,CGCGATAA,0.126
21,CCGCCTGC,-0.397
22,ATATATTA,0.467
23,AGCCCGCA,-0.256
24,CGGGTGAC,-0.349
25,CCTCCCAG,-0.241

row,Sequence,binding signal [E-score]
1,GACTATAA,0.178
2,CGTCGTGA,-0.0498
3,CATGAACG,-0.0373
4,ACGCATAT,0.0953
5,AACTCTCG,0.0625
6,AGAGAGAT,0.0321
7,TAGACAGA,0.0181
8,GCAACGAA,0.0403
9,GGTATGTA,0.319
10,CTGTGCGA,-0.251
11,CCACTCAG,-0.0521
12,ACCCAGCT,0.0254
13,ACAATCTC,0.101
14,ACGAAACC,-0.0947
15,GAGAGTCA,-0.122
16,CTACAGGC,-0.0508
17,GCCTGCAA,-0.243
18,GTCAGCTA,-0.00978
19,AGCTTGGA,-0.00195
20,ACTAGCGA,0.163
21,ACGGAGCG,-0.13
22,AATTGCGC,-0.0698
23,CCTACATA,0.164
24,GCAGATAC,0.0143
25,ACCTGCTG,-0.268

row,Sequence,binding signal [E-score]
1,CTGTTACC,0.0232
2,CACCGTCC,-0.224
3,AAACGTTG,-0.0632
4,ATGCCGTC,-0.145
5,GGTTCGGA,-0.163
6,AGGGACAA,-0.176
7,GGACAGAA,-0.127
8,CTGAACAC,-0.199
9,CATTTATC,0.187
10,ATCATTTC,0.0431
11,CCAGCAGC,-0.236
12,CCAGTCCG,-0.32
13,ACTGCAAT,0.0152
14,CAACGCGG,-0.189
15,GCGGTGAC,-0.289
16,TAAATACA,0.333
17,CCTCCGGC,-0.258
18,ACCCCACA,-0.3
19,CCCTCAGA,-0.278
20,CAAGAATA,-0.0771
21,CACCTTCG,-0.185
22,GAGTTGCC,-0.116
23,AGCAGACA,0.0619
24,AAGCCGGT,-0.157
25,CTTACGCA,-0.0114

row,Sequence,binding signal [E-score]
1,CCGCTAAG,-0.1
2,ATCGGCAT,0.171
3,AGGAGGGG,-0.473
4,ACTACCCA,0.312
5,CTCCCCGC,-0.262
6,TCGGCTAA,0.0514
7,AGCACGCC,0.0264
8,CGTCAACG,-0.214
9,CCTGCCAC,-0.329
10,CATAATAC,0.275
11,CTGCGTTC,-0.134
12,CTCGCACC,-0.191
13,AGATGGGA,0.00281
14,ACGTGGCT,-0.0619
15,CCCTTCAG,-0.307
16,CAGATGCA,-0.199
17,CTCCCAGC,-0.254
18,CCCCGTTC,-0.247
19,ACGACCAA,-0.0477
20,AATTTTCC,0.171
21,CGAATTAA,0.0899
22,GGAAGAGA,-0.12
